The other results are listed elsewhere or left out.
Each sequence was assayed on PfHDP1 homeodomain (GST-tagged) (assay: gcPBM binding intensity (ln(normalized median fluorescence intensity)); higher = stronger DNA binding).
How it was run: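 Using an Agilent 4 × 180k array, primer-extended double-stranded 36-bp intergenic genomic probes and negative controls were exposed for 1 h to GST-fused P. falciparum DNA-binding domains expressed in E. coli. Binding was carried out in 1× PBS with 1% milk, 0.2 mg/ml BSA, 0.5% salmon testes DNA and 0.03% Triton X-100, and protein was detected with Alexa488 anti-GST antibody and a 488 nm scan. Binding intensity is the highest Masliner-normalised natural-log median intensity across replicate spots of either probe orientation.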

Sequence | gcPBM binding intensity (ln)
TCTACATCTGTATATAAACACACAACAAAAATGCTT [CACACA_site9271] | 6.46
AATGTGTAGACACGCACACACAAAAAAATATTTATA [CACACA_site7384] | 6.67
TTCTTACACAAAAAAATGAAATCAATCAAAAAAAAA [CACACA_negctrl_site869] | 5.98
TATATATTTCAATAATGTACATATAATATATATATT [XGTACX_site4124] | 6.6
AAGTAAAATAAGTATACACACATAAATATGTAAATA [CACACA_site6467] | 6.34
TTGTTTTCACCAAATACACACAAGCATACACCCCAT [CACACA_site2717] | 7.34
ATACATAAATTTATACGTACATATATAGATACATAA [XGTACX_site675] | 6.61
TTACATGCTAAAATTTGTACATATATGATAAATATT [XGTACX_site2648] | 6.47
AAATATTACTCCTCAAGTACACATAAAAAAAAAATA [XGTACX_site2085] | 6.62
TTTTATTTTCGATGATGTACATTAAATTATACAGTA [XGTACX_site6053] | 6.36
TAAAAATTTAAGAAAACATGCATCTAACATATATAT [TGCATGCA_site342] | 6.52
TATTTTTTTTGATATTGTACTTTTTTATTATTTTTT [XGTACX_site566] | 6.55
AATATACAAAATAAATAAAATATATATATATATATA [CACACA_negctrl_site216] | 9.24
GGTAGGTGAATATATACACACATATATTATATATAT [CACACA_site1984] | 7.04
TACACATGTTTAAAATGTACGTTTTATAACACACAC [XGTACX_site8229] | 7.39
AAAAAAAATTAAGCATGTATAAATATATATATATAT [CACACA_negctrl_site1540] | 9.02
TTTTACAAGTATTGATAAATAAGAAATATATAAAAT [CACACA_negctrl_site529] | 6.35
GTGTATTTTGTGCGCACACACATGCAAAAAGAAATA [CACACA_site6660] | 9.54
ATCATTTTTAATAAATGTACAAGTTTTAAAAAAAAA [XGTACX_site7340] | 6.02
AAAAAAACAACATGCACACGCACACCCAAAAAAAGC [CACACA_site72] | 8.81
GTAATCCACAAACACACACACATACACATATATATA [CACACA_site2728] | 7.3
ATATATTACAATATATGTACTTAATTTGCTTAAATA [XGTACX_site7912] | 6.21

Sequence | gcPBM binding intensity (ln)
AGAGGAAAAATAAAAGGAAAAAAGAAAATAATATTG [CACACA_negctrl_site852] | 6.2
ATAATATTTTAGAGCAGTACACTTTTATATTTATTG [XGTACX_site5728] | 6.67
TAAAACAGAATGAGGAGTACAAAAAGAAGAAAAGGG [XGTACX_site1246] | 7.31
AAAATAAATATTACATGTACATATATATATATATAT [XGTACX_site8492] | 9.27
TCCATAAATAATTGTAGTACACATACTATGTGACAT [XGTACX_site7268] | 6.48
AAAAGTAAAAAAAGCACACACGAAAAAAAATAAAAA [CACACA_site5264] | 6.72
TATTAAAAAAAAAAATAAAAAAATAAAATAAAATAA [CACACA_negctrl_site580] | 6.36
AACTATAAAAGTTTTACACACTGTTTTTAAATAATG [CACACA_site7686] | 6.62
TTATGCATAAAAGGTGGTACTCCGTATATACATTCT [XGTACX_site4354] | 6.62
ATATATATATATATGTGTACATATAAGATAGAAGAA [XGTACX_site3198] | 9.31
TATTTATTTATAAATGCATGTCGCTCTTTTTATTAC [TGCATGCA_site626] | 6.36
ATTATTATAGATATAACACACATAATTACATACTTA [CACACA_site6837] | 6.2
AATATATCATAATGATGTACAAGTAAAACCGTTACA [XGTACX_site4280] | 6.56
AAAAACTTATATGATACACACGATAAACAAAATAAA [CACACA_site1039] | 6.73
TTTGTGCCTATAAATTAACACACAGAAATATATAGA [CACACA_site8175] | 6.35
ATTCTTTTAAACAGTACACACACACCGATATATATA [CACACA_site8213] | 7.2
AATATATATATATATACATGCATATATTCCTTCCTT [TGCATGCA_site890] | 6.65
TAACACATAAATAAATATATACATATATATAAAATA [CACACA_negctrl_site375] | 6.36
ATAAAATAAAATTGGTGTACTTTTGATAAAATAAAA [XGTACX_site4264] | 6.17
GATCTATATATCATTACACACTTGAATTACTTAAAA [CACACA_site21] | 6.48
CAAAAATACATTATAATAATATGCACAATAATAAAT [XGTACX_negctrl_site263] | 9.11
TATATTTACTCTAAGTGTACATATTATTTTATAATA [XGTACX_site2046] | 6.22

Sequence | gcPBM binding intensity (ln)
TTTTTTTTTTTTATTTGTACACATTTTCATATTTTT [XGTACX_site4406] | 6.48
TATATATATATGTGCACACATAAAGATATTATTTTT [CACACA_site3733] | 10.1
CACCCTTTGTTTTAGAGTACATATGTATATACGTAA [XGTACX_site7964] | 6.75
GATTAAAATCAAAGGTGTACGCACAAATAAGTCCCA [XGTACX_site4360] | 6.65
TATATATATTTATGTACACACATATATACCTTTCAT [CACACA_site5479] | 6.74
ACAAAATTTACAAAATGTACAAAGTATGTGTTTTAT [XGTACX_site6462] | 6.13
TTTCCGGTAATATGGAGATATATGTGGGTTTTTTTT [GTGCAC_negctrl_site374] | 6.41
ATATTTTTTTTTTTCACACACATTTATATTGTATTA [CACACA_site5695] | 6.84
AGAAAAAAGAGGGATACACACAAACATATATTTATA [CACACA_site7122] | 6.5
ATAATATTTTATTATACATGCAAATTATTATATATA [TGCATGCA_site40] | 6.25
TTTCTTTGTATTTATAGTACATATTTTAATAACTGC [XGTACX_site6673] | 6.26
TAAAAATTAAAAAGGGTGCAAAAAAAAAAAAAAAAA [GTGCAC_site9733] | 8.23
TATTAATTATAAGATGCATGTGCAAAAATATGTTCC [TGCATGCA_site51] | 10.2
TTATTATTATGATTATTATGATGATTATACAACTGT [TGCATGCA_negctrl_site241] | 6.26
AATATACATAACAAGGTGCAAAAAATATTGTTCATA [GTGCAC_site9499] | 9.48
AAAAGACATTTTTTTTTATAAATACACACGTACGTG [TGCATGCA_negctrl_site281] | 6.49
AGGAGGAACAAACAAAACAATAAAAATTATAATAAA [GTGCAC_negctrl_site206] | 6.65
TTCAAAGACACAATCACACACATACATAAATATACA [CACACA_site687] | 6.68
TATTAAAATATTCTCACACACCAAAATATGTATGTA [CACACA_site6565] | 6.21
AAAAAAAAAAAAAAAAAAAGAAAAGAAAATAGGGTT [GTGCAC_negctrl_site421] | 6.72
ATTATATTAATTTATAGTACAATATTTATATATATG [XGTACX_site4668] | 6.36
TATATATTACTTTTTTGTACGAATTTTACAACTACG [XGTACX_site3473] | 6.65

Sequence | gcPBM binding intensity (ln)
TGTCTTATTTATATTACACACTATATGAAAAAATAT [CACACA_site6807] | 6.52
AAAGGATATATCCAGAGTACATATTCTGTGTAATAC [XGTACX_site1547] | 6.73
ATAATTGTTTCTTTCTCCTTTTTATTTCATTTTAAA [CACACA_negctrl_site964] | 6.61
CACAAAAAAAATTATACACACACACCCATATATATA [CACACA_site8255] | 7
TATTCATCACTTTTTTGTACTTATGGATAAAATTTT [XGTACX_site3349] | 6.89
TATATAATAAGAAAATATGTGCGTAGTTCAGCAAAA [XGTACX_negctrl_site304] | 7.48
AAAATAAGAAAACAAATGCACACCATTTATATAGAT [CACACA_site1055] | 8.92
GAAAAATATATTCTGGTGCATGAATAAAATCATAAA | 9.33
AATTGGATAAACCAATTGGATTATAATACGATATAT [CACACA_negctrl_site275] | 6.18
GAAAAAGATGCGCATACACACAGATGAATAACAAAA [CACACA_site1628] | 7.73
ATATATATATATATATGTACATAATTAATAGCATAT [XGTACX_site1428] | 9.29
TATTTATTTATGTACGCACACAGTTGATATTAATTC [CACACA_site2754] | 7
ATATACAATACAAAAACACACACAAAAAAAGAAAAG [CACACA_site8668] | 6.8
ATAGTATCTGGTAGCTGTACGAGTCGTAGAGTCTAA [XGTACX_site2539] | 5.95
ATGTATATTTTTAAAAGTACAGAATTTTCATATGAA [XGTACX_site5754] | 6.81
TTTCAAAAATGAGTTACACACACACCGATATATATA [CACACA_site5263] | 7.1
AATAAATACTAAATGGTGCAAAATTTTTTAACACTG | 10
TATATATATTATAGATGTACTTTCATATATATGTTT [XGTACX_site8189] | 6.65
AGCCACCATATTTACACACACATCAAAATGTATTAA [CACACA_site1816] | 7.2
GTGTAATATGAAATGTGTACACACGCACACACAAAA [XGTACX_site6180] | 7.61
TAAAATATTTTTTGTAGTACCTTAATATTTTTGAAG [XGTACX_site3048] | 6.46
TAAATATAATCTAAATGTACATGACATAATTTTTTT [XGTACX_site2856] | 6.01

From the supplement of paper PMC11417369
